The structures appear in SMILES notation. In all, about 110,000 compounds were measured (“z-score”: median about -0.1, highest 2% from about 2 on). The list shows a part of the results.

This assay has as its target Metabotropic glutamate receptor 8 (Rattus norvegicus) (UniProt P70579). As to the kind of experiment: mGluR8 Gi/Go-coupled signaling modulation – cell-based, rat, thallium flux, HTS, primary screen (AID 488969). To be noted: HEK293 rat mGluR8, GIRK (G protein-gated inwardly rectifying potassium channel) thallium flux, FluoZin2; at 10 µM; stronger effect = higher value; submaximal glutamate (EC20) added with thallium.
Sequence of UniProt P70579 (P70579 whole entry, looked up): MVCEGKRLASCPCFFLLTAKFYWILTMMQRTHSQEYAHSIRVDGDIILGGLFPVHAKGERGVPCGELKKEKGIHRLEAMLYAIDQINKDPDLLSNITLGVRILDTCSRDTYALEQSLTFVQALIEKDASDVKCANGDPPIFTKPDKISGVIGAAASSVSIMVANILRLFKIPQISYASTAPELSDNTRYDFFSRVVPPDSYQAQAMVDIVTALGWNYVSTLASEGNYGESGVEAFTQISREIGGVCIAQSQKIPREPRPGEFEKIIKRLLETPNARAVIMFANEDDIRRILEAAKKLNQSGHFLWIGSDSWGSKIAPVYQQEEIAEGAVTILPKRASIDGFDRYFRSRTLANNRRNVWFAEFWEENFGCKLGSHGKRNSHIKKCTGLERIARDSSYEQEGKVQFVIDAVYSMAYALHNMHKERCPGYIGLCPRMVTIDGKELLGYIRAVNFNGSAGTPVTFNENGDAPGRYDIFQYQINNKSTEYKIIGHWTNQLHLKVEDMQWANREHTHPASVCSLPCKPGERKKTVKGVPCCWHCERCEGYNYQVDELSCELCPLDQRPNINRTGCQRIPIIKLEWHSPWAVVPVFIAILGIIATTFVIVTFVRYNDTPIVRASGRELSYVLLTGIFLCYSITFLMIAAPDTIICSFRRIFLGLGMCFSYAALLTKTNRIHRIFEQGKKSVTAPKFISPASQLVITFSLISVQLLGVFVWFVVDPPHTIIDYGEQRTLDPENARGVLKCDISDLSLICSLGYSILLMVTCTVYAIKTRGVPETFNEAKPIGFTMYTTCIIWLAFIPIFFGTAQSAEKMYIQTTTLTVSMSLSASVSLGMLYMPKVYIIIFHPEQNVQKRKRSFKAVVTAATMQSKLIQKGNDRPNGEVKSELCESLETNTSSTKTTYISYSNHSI
Turning to `Cc1ccc(OCC(=O)N2CCCCCC2)c(C)c1`, the z-score is -0.123.

Take `COCCNC(=O)c1ccccc1NS(=O)(=O)c1ccc(Br)s1`: the z-score is 0.342. Under `CC1CCCC(C)N1C(=O)Cn1c(=O)sc2ccccc21` (stereo unspecified) stands -0.56; under `CCCC1C(=O)N(c2ccccc2)C1c1ccccc1` (stereo unspecified), -0.305. In turn, `O=C(COc1ccccc1CNCc1ccccc1)Nc1ccccc1` displayed a z-score of 1.89. Under `O=C(NNC(=O)c1ccc2c(c1)OCO2)NC12CC3CC(CC(C3)C1)C2` stands -0.287.

Regarding `CCOC(=O)c1c(Nc2ccccc2N)cc(C)nc1C`, the z-score is -0.345. Under `Cc1ccc(S(=O)(=O)N(Cc2cc3cccc(C)c3[nH]c2=O)c2ccccc2)cc1` stands -0.159; under `Nc1nc2ccc(Oc3ccccc3)cc2s1`, -0.274; under `Cc1ccnc(NC(=O)C2CCC(CNc3c(N4CCCC4)c(=O)c3=O)CC2)c1` (stereo unspecified), 0.568. With `Cc1cnn(C(=S)NCc2ccco2)c1` the figure was -0.171; with `O=C1Nc2cc(C(=O)N3CCN(Cc4ccccc4)CC3)ccc2SC1N1CCOCC1` (stereo unspecified), 0.0584; with `NS(=O)(=O)c1ccc(CCNC(=O)CN2CCN(c3ccccc3O)CC2)cc1`, -0.159. As for `Cc1ccc(NC(=O)CCC(=O)N/N=C/C=C/c2ccccc2)cc1`, the z-score is -0.0968.

`COc1cccc(NC(=O)c2cccnc2)c1` gave a z-score of 0.272. Regarding `CCc1cc(=O)oc2c(CN3CCCC3)c(O)c(Cl)cc12`, the z-score is -0.478. With `CCOc1ccc(C/C(N)=N/n2cnnc2)cc1` the figure was 0.411. The compound `N#C/C(=C\c1cn(Cc2cccc(F)c2)c2ccccc12)C(=O)NCc1ccco1` had a z-score of -0.44.

The compound `C/C(=N\OC(=O)c1cccc(C)c1)c1sc(-c2ccccc2)nc1C` registered a z-score of 0.0633. With `Cc1nc2nc(-c3ccccc3)[nH]n2c(=O)c1Cc1ccccc1` the figure was 0.023; with `Cc1cc(Oc2ccc(C#N)cc2)nc(NCc2ccccc2)n1`, 0.216.

As for `O=C(/C=C/Nc1ccc(Br)cc1F)c1ccccc1`, the z-score was -0.219.

`CCOC(=O)N(CC)OC(=O)Nc1ccc(Cl)cc1` displayed a z-score of -0.314. The compound `COC(=O)c1cc(NC(=O)CN(c2cccc(OC)c2)S(=O)(=O)c2ccccc2)ccc1Cl` yielded a z-score of -0.407. With `COc1ccc(NC(=S)NCC(O)c2ccccc2)c(OC)c1` (stereo unspecified), the z-score was -0.107. Turning to `Cc1cc2ncn(-c3ncnc4sc(C)c(C)c34)c2cc1C`, the z-score is 0.366.

Regarding `COc1ccc(NC(=S)N2CCN(C/C=C/c3ccccc3)CC2)cc1OC`, the z-score was -0.323. Compound `O=C1[C@@H]2[C@@H]3C[C@@H]([C@H]4ON=C(c5ccc(OCc6ccccc6)cc5)[C@@H]34)[C@@H]2C(=O)N1c1ccc2c(c1)OCO2` had a z-score of 0.15. With `O=C(NCCN1C(=O)S/C(=C\c2ccc(Cl)cc2)C1=O)c1ccc(F)c(S(=O)(=O)N2CCOCC2)c1` the figure was -0.146; with `CCn1c(=O)c2c3c(sc2n2c(=S)[nH]nc12)CCC3`, -0.309; with `CCN(CC)c1nc(SCCOC(=O)Nc2ccccc2)nc(N(CC)CC)n1`, -0.38. Under `Cc1ccc(S(=O)(=O)C2(C(=O)O)CCCC2)cc1C` stands 0.0761. `Cc1[nH]n(-c2ccccc2)c(=O)c1C=Nc1cccc2cccnc12` registered a z-score of 0.652. In the case of `CCN(CC)S(=O)(=O)c1ccc(OC)c(NC(=O)c2cc([N+](=O)[O-])ccc2Cl)c1`, the z-score was -0.242. With `Cc1ccc(CNS(=O)(=O)/C=C/c2ccc3c(c2)OCO3)cc1` the figure was 0.0141; with `CCSc1cc(C2C(C#N)=C(N)OC(C)=C2C(=O)OC)c(C)o1` (stereo unspecified), 1.85.

With `CCOC(=O)c1ccc(N2C(=O)C3CC=CCC3C2=O)cc1` (stereo unspecified), the z-score is -0.136. Under `O=C(NCc1ccco1)c1cnc2n(c1=O)CCS2` stands -0.0345; under `COC(=O)c1cccc(S(=O)(=O)N2CCC(c3nc4ccccc4o3)CC2)c1`, 0.148; under `CCN(CC)c1cc(CS(=O)c2ccccc2)nc(-c2ccccc2)n1` (stereo unspecified), -0.238. Under `CC(C)(C)C1(C)OC(C(N)=O)C(C(N)=O)O1` (stereo unspecified) stands 0.464; under `O=C1COc2ccc(C(=O)NCc3ccco3)cc2N1`, 0.913; under `Cc1ccc(OCCNC(=O)c2cccc(Oc3ccc(C(F)(F)F)cc3[N+](=O)[O-])c2)cc1`, -0.0955.

With `CN(C(=O)CSc1nc2ccccc2n1CCc1ccccc1)C1CCS(=O)(=O)C1` (stereo unspecified), the z-score came to 0.483. With `Cc1cnc(C(=O)OCC(=O)Nc2ccc(C)c(S(=O)(=O)N3CCCCC3)c2)cn1` the figure was -1. With `CC(C)CC(c1nnnn1CCc1ccccc1)N1CCN(C(=O)c2ccco2)CC1` (stereo unspecified) the figure was 0.0414; with `O=c1[nH]c2cc3c(cc2cc1CN(Cc1nnnn1C1CCCC1)C1CCCC1)OCCO3`, -0.184. Under `CCOC(=O)Cc1csc(NC(=O)CC(C)(C)C)n1` stands -0.283; under `CC(C)(C)c1ccc(/C=C2\Oc3cc(OC(=O)N4CCOCC4)ccc3C2=O)cc1`, -0.308; under `Cc1cccc(Nc2n[nH]c(C)c2[N+](=O)[O-])c1`, 0.073. Compound `Cc1[nH]nc(SCC(=O)N2CCC(C)CC2)c1[N+](=O)[O-]` returned a z-score of -0.0871. As to `Cc1ccc2nsnc2c1S(=O)(=O)NCCc1c(C)[nH]c2ccc(F)cc12`, the z-score was -0.0892. Compound `COc1ccc(CCNC(=O)CSCc2ccc([N+](=O)[O-])cc2)cc1` yielded a z-score of -0.058. Compound `CC(=O)Cc1nsc(NC(=O)c2cc(-c3cccc(C(F)(F)F)c3)oc2C)n1` came in with a z-score of -0.566. Under `CCc1cc2c(NCC3CCCO3)nc(C)nc2s1` (stereo unspecified) stands 0.755; under `O=C(C1CCCO1)N1CCN(Cc2c(O)ccc3ccccc23)CC1` (stereo unspecified), -0.317; under `CSCCC(NC(=O)c1cc(CC(C)C)oc1C)C(=O)O` (stereo unspecified), 0.21. Regarding `COC(=O)c1sccc1NC(=O)c1ccc(Br)o1`, the z-score is -0.0512. For `NC(=O)c1ccccc1N/C=C/C(=O)c1ccc(Cl)cc1Cl`, the z-score was -0.406. The compound `CC(=O)N1CCN(c2ccc(NCc3ccc(C)s3)cc2)CC1` gave a z-score of 0.169.

The compound `Cc1cc(N(CCO)CCO)nc(-n2nc(C)cc2C)n1` registered a z-score of 0.0533.

Consider `COc1ccc(CCNC(=O)COC(=O)c2ccc[nH]c2=O)cc1`, for which the z-score worked out at 0.0876. As for `COc1ccc2c(c1)[nH]c(=O)c1sc3ccccc3c12`, the z-score is -0.212. For the compound `Cc1cc(C)cc(OCc2ccc(C(=O)N3N=C(C(F)F)CC3(O)C(F)F)o2)c1` (stereo unspecified), the z-score is -0.136. The compound `O=C(NCc1ccccc1)Oc1cccc(Cl)c1` gave a z-score of -0.077.

In turn, `Cc1nc2ccc(NC(=O)N3CCCCC3)cc2nc1C` returned a z-score of -0.733. `CC(C(=O)c1ccccc1)n1cnc2ccccc2c1=O` (stereo unspecified) came in with a z-score of 0.257. With `Cc1nn(C)c(C)c1NC(=O)CN1CCC(O)(c2ccc3c(c2)OCO3)CC1` the figure was 0.225; with `Cc1cc(C(=O)NCCCN2CCN(c3cc(Cl)ccc3C)CC2)n(-c2ccccc2)n1`, -0.0252; with `CC1(C)CC(C(=O)Nc2nccs2)CCO1` (stereo unspecified), 0.392.

As for `Cc1cc(C)c(S(=O)(=O)n2cnc3ccccc32)c(C)c1`, the z-score stood at 1.96. With `CC(=O)Nc1cc(C(=O)N2CCc3ccccc3C2)ccc1Sc1ccc(Cl)cc1` the figure was -0.633; with `Cn1c(=O)[nH]c(=O)c2c1nc(CN1CCOCC1)n2CCc1ccccc1`, -0.224; with `CC(c1ccco1)N(C(=O)C12CC3CC(CC(C3)C1)C2)c1ccccn1` (stereo unspecified), -0.0361. Under `NC(=O)C(Cc1ccccc1)NS(=O)(=O)c1ccc(N2CCCC2=O)cc1` (stereo unspecified) stands 0.443; under `Cc1cc(C)n2c(SCc3c(C)noc3C)nnc2n1`, -0.0364. Compound `COc1ccc2[nH]c(=O)c(CN(Cc3cccs3)C(=S)Nc3cccc(C)c3)cc2c1` registered a z-score of 0.267. Under `CCN1C(=O)C(O)(CC(=O)c2cc(C)ccc2C)c2ccccc21` (stereo unspecified) stands 0.918. With `O=C(NNC(=O)c1ccccc1Br)c1cccc(Cl)c1` the figure was 1.39; with `COc1ccc(NC(=S)NCCc2ccc(Cl)cc2)c(OC)c1`, 0.319. Under `COC(=O)C(C)(C)ONC(=O)Nc1ccccc1Br` stands 0.15; under `COc1ccc2c(C)cc(SCC(=O)Nc3ncc(Cl)cc3Cl)nc2c1`, -0.0654; under `COc1ccc(C(=O)NCc2cccnc2)cc1Br`, -0.493.

With `C=CCNc1nc2c(c(=O)[nH]c(=O)n2C)n1Cc1cccc(C)c1`, the z-score was -0.137.

`COC(=O)NNC(=O)COc1ccc2ccccc2c1Br` gave a z-score of -0.336. Under `COc1cc(-c2c(C#N)c(N)nc3c2CCCC3)cc(OC)c1OC` stands -2.82. In turn, `CCOc1ccc(-c2nnc(SCc3nc4ccccc4[nH]3)n2N)cc1` yielded a z-score of 0.0568. In the case of `CC(=O)Cc1nsc(NC(=O)c2ccccc2)n1`, the z-score is -0.744. `COc1ccc(CC(=O)N2CC(C)CC(C)C2)cc1OC` (stereo unspecified): the z-score stood at 0.418. Under `COc1ccc(C(=O)Cc2ccc(OC)c(OC)c2)c(OC)c1` stands 0.183; under `CCn1cc(C(=O)O)c(=O)c2cc(F)c(N/N=C/c3ccccc3)cc21`, -0.559. Under `COc1ccc(C(=O)CSc2nnc(NC(=O)C3CC(=O)N(c4ccccc4C)C3)s2)cc1` (stereo unspecified) stands -0.0938; under `CCOC(=O)Cc1csc(NC(NC(=O)OCC)(C(=O)OCC)C(F)(F)F)n1` (stereo unspecified), 1.79; under `CC(C)N(C(=O)COC(=O)[C@@H]1CC(O)CN1S(=O)(=O)c1ccccc1[N+](=O)[O-])C(C)C` (stereo partly specified), -0.0393. With `O=C(c1ccccn1)N(Cc1cc2ccccc2[nH]c1=O)C1CCCCC1`, the z-score is -0.167. With `O=C(CCC(=O)c1ccc(F)cc1)Nc1cccc(C(F)(F)F)c1` the figure was -0.344; with `O=C(/C=C/c1ccco1)Nc1nc(-c2ccccc2)cs1`, -0.216.

As for `Cc1cc2cc(CNC(=O)c3ccc(S(=O)(=O)N4CCCC4)cc3)ccc2n1C`, the z-score is -0.454. Compound `CCOC(CCNC(=O)c1cn(-c2cccc(C)n2)cn1)OCC` registered a z-score of -0.118. Under `CSCCC(NC(N)=O)C(=O)N(C)CC(=O)Nc1cc(C)ccc1C` (stereo unspecified) stands 0.00676. Under `Cc1ccc(S(=O)(=O)Nc2ccccc2C(N)=O)cc1` stands -0.215. Under `COc1ccc(NC(=O)c2cc3c(=O)n(C)c4ccccc4c3n2C)cc1OC` stands -1.38.

For the compound `Cc1ccc(-c2cn(-c3ccc(SC(F)F)cc3)c3[n+]2CCC3)cc1`, the z-score is -0.0421. Under `CCCCN1CC(O)=C(c2nc3ccccc3[nH]2)C1=N` stands -0.0274; under `CCc1nnc(NC(=O)c2ccc(Cl)c(S(=O)(=O)N3CCc4ccccc4C3)c2)s1`, -0.209; under `N#Cc1ccc(Oc2nc(C(N)=O)cc(-c3ccccc3)n2)cc1`, -0.0624. With `COc1ccc(-c2n[nH]c(=S)n2/N=C/C=C/c2ccccc2OC)cc1` the figure was 0.578; with `Cn1c(=O)c2c(nc(SCc3ccccc3)n2Cc2ccc(Cl)cc2)n(C)c1=O`, -0.333; with `Cc1c(C(=O)N2CCOCC2)[nH]c2ccc(OCc3ccccc3)cc12`, -0.364. With `CC1CCN(CCCNC(=O)c2coc3nc4ccccc4nc23)CC1` the figure was 0.221.

Take `CC(=O)C1=C(O)C(=O)N(CCc2c[nH]c3ccccc23)C1c1ccc(O)cc1` (stereo unspecified): the z-score was determined as 0.33.
